For three substances, binding results are on record in paper PMC11349758.

By UniProt entry, the sequences of proteins in these tests, tags left out. Where a name states a change or a piece, a line headed by the entry shows the natural chain unless it says otherwise.
UniProt P42230: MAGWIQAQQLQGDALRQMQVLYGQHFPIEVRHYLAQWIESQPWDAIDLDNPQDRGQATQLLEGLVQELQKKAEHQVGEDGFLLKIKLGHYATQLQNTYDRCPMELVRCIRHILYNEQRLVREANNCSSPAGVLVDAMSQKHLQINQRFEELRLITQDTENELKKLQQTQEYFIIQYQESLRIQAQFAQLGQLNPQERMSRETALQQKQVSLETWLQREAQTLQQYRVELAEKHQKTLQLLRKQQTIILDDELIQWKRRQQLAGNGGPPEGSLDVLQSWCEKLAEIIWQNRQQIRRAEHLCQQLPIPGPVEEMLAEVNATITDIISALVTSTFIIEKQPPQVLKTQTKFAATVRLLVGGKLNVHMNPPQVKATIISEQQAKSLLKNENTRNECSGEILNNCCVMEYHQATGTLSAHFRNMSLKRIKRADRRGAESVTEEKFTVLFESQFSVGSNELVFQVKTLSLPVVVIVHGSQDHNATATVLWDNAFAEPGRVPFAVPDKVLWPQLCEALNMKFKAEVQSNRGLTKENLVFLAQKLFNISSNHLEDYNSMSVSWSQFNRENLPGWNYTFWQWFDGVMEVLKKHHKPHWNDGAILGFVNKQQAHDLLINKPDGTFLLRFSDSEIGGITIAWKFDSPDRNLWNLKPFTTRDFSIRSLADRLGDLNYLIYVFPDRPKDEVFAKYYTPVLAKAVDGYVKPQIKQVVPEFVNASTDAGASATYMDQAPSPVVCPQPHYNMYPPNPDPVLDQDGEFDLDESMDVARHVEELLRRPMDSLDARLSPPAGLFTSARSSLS
UniProt P42232: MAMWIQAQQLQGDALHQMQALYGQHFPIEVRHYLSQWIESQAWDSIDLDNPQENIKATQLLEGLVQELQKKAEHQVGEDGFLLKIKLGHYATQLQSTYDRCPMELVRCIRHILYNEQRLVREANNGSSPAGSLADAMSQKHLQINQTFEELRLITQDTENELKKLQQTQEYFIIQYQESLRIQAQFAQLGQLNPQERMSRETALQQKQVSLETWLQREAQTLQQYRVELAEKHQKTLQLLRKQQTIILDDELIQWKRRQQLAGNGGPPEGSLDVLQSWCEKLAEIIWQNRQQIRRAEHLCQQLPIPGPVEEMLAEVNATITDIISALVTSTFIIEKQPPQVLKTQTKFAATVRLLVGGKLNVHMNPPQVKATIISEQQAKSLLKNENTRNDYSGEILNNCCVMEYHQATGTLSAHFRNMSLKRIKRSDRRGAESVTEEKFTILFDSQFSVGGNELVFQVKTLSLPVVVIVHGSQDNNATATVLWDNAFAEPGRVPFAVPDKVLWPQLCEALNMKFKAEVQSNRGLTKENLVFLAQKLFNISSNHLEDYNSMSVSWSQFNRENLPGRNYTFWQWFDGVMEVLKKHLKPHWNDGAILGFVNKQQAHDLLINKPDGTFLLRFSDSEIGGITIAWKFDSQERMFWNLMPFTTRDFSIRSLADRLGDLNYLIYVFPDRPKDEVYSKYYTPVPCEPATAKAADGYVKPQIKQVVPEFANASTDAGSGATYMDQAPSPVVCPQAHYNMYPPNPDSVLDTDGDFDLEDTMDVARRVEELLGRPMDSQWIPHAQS

No constants are given. Whether binding was seen depends on the method and setting. Binding seen in cells or lysates may run through a third protein. Some results given as binding are weak or reduced against the parent protein; the word gives no strength.

Assay [1] addresses STAT5A^Y694F (mouse (endogenous in mouse splenic T cells)) (UniProt P42230). Kind of assay: co-IP; lysates of preactivated mouse T cells cultured without IL-2 (not stimulated); high salt NP40 lysis buffer (10 mM Tris pH 7.5, 0.3 M NaCl, 0.5% NP40); IP with rabbit anti-STAT5A antiserum (R1216) and protein A/G magnetic beads at 4 °C overnight; blot with anti-STAT5B.
For assay [2], the target named is tyrosine phosphorylated STAT5A (pYSTAT5A) (mouse (endogenous in mouse splenic T cells)) (UniProt P42230). The assay is described as follows: co-IP; lysates of preactivated mouse T cells stimulated with 500 IU/ml IL-2 for 20 min; high salt NP40 lysis buffer (10 mM Tris pH 7.5, 0.3 M NaCl, 0.5% NP40); IP with rabbit anti-STAT5A antiserum (R1216) and protein A/G magnetic beads at 4 °C overnight; blot with anti-STAT5B.

Assay [3] addresses STAT5A (cells not stimulated with IL-2) (mouse (endogenous in mouse splenic T cells)) (UniProt P42230). Kind of assay: co-IP; lysates of preactivated mouse T cells cultured without IL-2 (not stimulated); high salt NP40 lysis buffer (10 mM Tris pH 7.5, 0.3 M NaCl, 0.5% NP40); IP with rabbit anti-STAT5A antiserum (R1216) and protein A/G magnetic beads at 4 °C overnight; blot with anti-STAT5B.

The target of assay [4] is STAT5A^Y694F (mouse (endogenous in mouse splenic T cells)) (UniProt P42230). The assay is described as follows: co-IP; lysates of preactivated mouse T cells stimulated with 500 IU/ml IL-2 for 20 min; high salt NP40 lysis buffer (10 mM Tris pH 7.5, 0.3 M NaCl, 0.5% NP40); IP with rabbit anti-STAT5A antiserum (R1216) and protein A/G magnetic beads at 4 °C overnight; blot with anti-STAT5B.

For “STAT5B (cells not stimulated with IL-2) (from UniProt P42232 1-786)”, the binding result in assay [1] is given as “no binding”.
As to “STAT5B^Y699F (from UniProt P42232 1-786)”, the binding entry in assay [2] and in assay [3] was “no binding” in each case.
As for “tyrosine phosphorylated STAT5B (pYSTAT5B) (from UniProt P42232 1-786)”, the binding entry in assay [4] is “no binding”; in assay [2], “binds”.
